Data published in paper PMC9911399, “Two distinct binding modes provide the RNA-binding protein RbFox with extraordinary sequence specificity”.
Substitutions are numbered along the chain they refer to; changes in the protein carry UniProt numbers. Some of the results follow.

T1: RBFOX1 RRM (Homo sapiens, UniProt Q9NWB1 109-208)
T1 sequence: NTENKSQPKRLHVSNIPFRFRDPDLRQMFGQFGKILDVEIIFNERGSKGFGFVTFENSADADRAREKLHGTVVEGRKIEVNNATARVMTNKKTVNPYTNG

B1: UUUAAUC (DNA:RNA)
RNA: GGGAGACCGGAAUUCAGAUUGUCCUUUAAUCUUAAAUCCCGUCGUAGCCACCA
DNA 1: CAATCTGAATTCCGGTCTCCC
DNA 2: TGGTGGCTACGACGGGATT
B2: CGGGUCU (DNA:RNA)
RNA: GGGAGACCGGAAUUCAGAUUGUCCCGGGUCUUUAAAUCCCGUCGUAGCCACCA
DNA 1: CAATCTGAATTCCGGTCTCCC
DNA 2: TGGTGGCTACGACGGGATT
B3: GGAAUAG (DNA:RNA)
RNA: B2 RNA with C25G, G27A, G28A, C30A, U31G
DNA 1: CAATCTGAATTCCGGTCTCCC
DNA 2: TGGTGGCTACGACGGGATT
B4: AAUGUGA (DNA:RNA)
RNA: B2 RNA with C25A, G26A, G27U, C30G, U31A
DNA 1: CAATCTGAATTCCGGTCTCCC
DNA 2: TGGTGGCTACGACGGGATT
B5: UCCCGAG (DNA:RNA)
RNA: B1 RNA with U26C, U27C, A28C, A29G, U30A, C31G
DNA 1: CAATCTGAATTCCGGTCTCCC
DNA 2: TGGTGGCTACGACGGGATT
B6: UUUCGAG (DNA:RNA)
RNA: B1 RNA with A28C, A29G, U30A, C31G
DNA 1: CAATCTGAATTCCGGTCTCCC
DNA 2: TGGTGGCTACGACGGGATT
B7: GUCUUGU (DNA:RNA)
RNA: B2 RNA with C25G, G26U, G27C, G28U, C30G
DNA 1: CAATCTGAATTCCGGTCTCCC
DNA 2: TGGTGGCTACGACGGGATT
B8: AAACAGA (DNA:RNA)
RNA: B1 RNA with U25A, U26A, U27A, A28C, U30G, C31A
DNA 1: CAATCTGAATTCCGGTCTCCC
DNA 2: TGGTGGCTACGACGGGATT
B9: CUCAUAC (DNA:RNA)
RNA: B1 RNA with U25C, U27C, A29U, U30A
DNA 1: CAATCTGAATTCCGGTCTCCC
DNA 2: TGGTGGCTACGACGGGATT

These binders were tested against T1, RBFOX1 RRM (assay: EMSA; HiTS-Eq, 1 nM pool, 10 min; buffer printed only for the single-RNA assays: 10 mM Tris pH 7.5, 150 mM NaCl, 3.4 mM EDTA, 0.001% NP-40, 30 C). Settings: tags: His6 N-terminal (pET28a); label: 5' 32P.
Method in brief: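 Relative association constants, normalised to the cognate motif, were derived by comparing read counts of each RNA species with those of the control reaction. The RNA sequenced was the free fraction, separated by 8% native PAGE after a 10 min equilibration in 50 µL of 1 nM 5′-radiolabelled RNA (7 randomized nucleotides) with increasing concentrations of purified wild-type or mutant RbFox RRM.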
In the case of B1, the binding signal is reported as 0.00539 KA relative to UGCAUGU. For B2, the binding signal was 0.0296 KA relative to UGCAUGU. For B3, the binding signal was 0.0101 KA relative to UGCAUGU. B4 was tested, and the binding signal was 0.0087 KA relative to UGCAUGU. B5 was tested, and the binding signal was 0.00733 KA relative to UGCAUGU. For B6, the binding signal was 0.0142 KA relative to UGCAUGU. With B7 the binding signal was 0.0251 KA relative to UGCAUGU. With B8 the binding signal was 0.000181 KA relative to UGCAUGU. With B9 the binding signal was 0.000607 KA relative to UGCAUGU.
